The structures appear in SMILES notation. The list shows a part of the results.

In test [1] the test system is HSkMC (human skeletal muscle cells). The test can be described thus: cytotoxicity call (relative viability < 0.9). As to conditions: 10 µM.
For test [2], the system named is HepG2. The test can be described thus: cytotoxicity call (relative viability < 0.9). The following applies: 10 µM.
Test [3] relates to S. aureus RN4220. The test can be described thus: growth inhibition call (relative growth <= 0.2). The following applies: 50 µM.

Consider `C[C@H](CO)N1C[C@H](C)[C@H](CN(C)S(=O)(=O)c2ccccc2)Oc2c(NS(=O)(=O)c3ccc(F)cc3)cccc2C1=O`, for which the cytotoxicity call in test [1] and in test [2] was “inactive” each time. The growth inhibition call in test [3] was “inactive”.
Regarding `C[C@@H]1CN([C@@H](C)CO)C(=O)Cc2cc(NC(=O)Nc3ccc4c(c3)OCO4)ccc2O[C@H]1CN(C)Cc1ccc(-c2ccccc2)cc1`, the cytotoxicity call in test [1] is “inactive”. Further, the cytotoxicity call in test [2] is “active”. Besides, the growth inhibition call in test [3] is “inactive”.
Turning to `C[C@H](CO)N1C[C@H](C)[C@H](CN(C)C(=O)Nc2ccc3c(c2)OCO3)Oc2c(NC(=O)c3ccc(-c4nccs4)cc3)cccc2C1=O`, the cytotoxicity call in test [1] and in test [2] was “inactive” throughout. Also, in test [3], the growth inhibition call is “inactive”.
On to `COc1ccc(S(=O)(=O)N(C)C[C@@H]2Oc3ccc(NC(=O)NC(C)C)cc3C(=O)N([C@@H](C)CO)C[C@H]2C)cc1`, for which the cytotoxicity call in test [1] and in test [2] was “inactive” each time. For the same compound, the growth inhibition call in test [3] is “inactive”.
As to `C[C@@H]1CN([C@@H](C)CO)C(=O)CCCn2nncc2CO[C@@H]1CN(C)C(=O)Nc1ccnc(N2CCOCC2)c1`, the cytotoxicity call in test [1] and in test [2] was “inactive” each time. For the same compound, the growth inhibition call in test [3] was “inactive”.
For the compound `Nc1ccn([C@@H]2O[C@H](CO)C[C@H]2O)c(=O)n1`, the cytotoxicity call in test [1] and in test [2] was “inactive” each time. Further, in test [3], the growth inhibition call is “inactive”.
In the case of `CCOC(=O)CCc1n[nH]c(=O)[nH]c1=O`, the cytotoxicity call in test [1] and in test [2] was “inactive” throughout. Further, the growth inhibition call in test [3] is “inactive”.
For the compound `Cc1ccccc1/C=C(\CCC(=O)O)c1nc2ccccc2s1`, the cytotoxicity call in test [1] and in test [2] was “inactive” throughout. In addition, in test [3], the growth inhibition call is “inactive”.
With `COc1ccc(S(=O)(=O)Nc2ccc3c(c2)C(=O)N([C@@H](C)CO)C[C@@H](C)[C@H](CN(C)C(=O)Nc2c(C)noc2C)OCCCC[C@H](C)O3)cc1`, the cytotoxicity call in test [1] and in test [2] was “inactive” in each case. Further, the growth inhibition call in test [3] is “inactive”.
On to `O=C1CCC(=O)N1Nc1ccccn1`, for which the cytotoxicity call in test [1] and in test [2] was “inactive” in each case. Moreover, in test [3], the growth inhibition call was “inactive”.
Consider `CC(=O)N1CC2(CCN(CC(=O)N3CCOCC3)CC2)C[C@@H]1C(=O)O`, for which the cytotoxicity call in test [1] and in test [2] was “inactive” throughout. Besides, the growth inhibition call in test [3] was “inactive”.
For `C[C@@H]1CCCCO[C@H](CN(C)C(=O)Nc2cccc3ccccc23)[C@@H](C)CN([C@H](C)CO)C(=O)c2cc(NS(=O)(=O)c3cccs3)ccc2O1`, the cytotoxicity call in test [1] and in test [2] was “inactive” throughout. Also, in test [3], the growth inhibition call is “inactive”.
Take `C[C@@H]1CN([C@@H](C)CO)C(=O)c2cc(NS(=O)(=O)c3ccc(F)cc3)ccc2O[C@H]1CN(C)S(=O)(=O)c1ccccc1`: the cytotoxicity call in test [1] and in test [2] was “inactive” in each case. In addition, in test [3], the growth inhibition call was “inactive”.
For `CCOc1ccc(C(=O)Nc2ccc(S(=O)(=O)N3CCCC[C@@H]3c3cccnc3)cc2)cc1OCC`, the cytotoxicity call in test [1] and in test [2] was “inactive” throughout. Moreover, the growth inhibition call in test [3] is “inactive”.
Take `CN1C(=O)c2cc(NC(=O)C3CCCC3)ccc2OC[C@@H]2O[C@H](CC(=O)NCCc3ccncc3)CC[C@@H]21`: the cytotoxicity call in test [1] and in test [2] was “inactive” in each case. Besides, the growth inhibition call in test [3] is “inactive”.
As to `Cn1nccc1CNC(=O)c1ccnn1C`, the cytotoxicity call in test [1] and in test [2] was “inactive” throughout. In addition, the growth inhibition call in test [3] was “inactive”.
Turning to `COc1ccc(S(=O)(=O)N(C)C[C@H]2OCCCC[C@H](C)Oc3ccc(NC(=O)CCC(F)(F)F)cc3C(=O)N([C@@H](C)CO)C[C@@H]2C)cc1`, the cytotoxicity call in test [1] and in test [2] was “inactive” in each case. For the same compound, the growth inhibition call in test [3] is “inactive”.
As to `O=C(C[C@H]1CC[C@H]2[C@@H](COC[C@@H](O)CN2S(=O)(=O)c2ccc(Cl)cc2)O1)N1CCc2ccccc2C1`, the cytotoxicity call in test [1] and in test [2] was “inactive” throughout. For the same compound, the growth inhibition call in test [3] is “inactive”.
On to `O=C(C[C@H]1C[C@@H]2c3cc(NC(=O)C4CCOCC4)ccc3O[C@@H]2[C@@H](CO)O1)NCc1cc(F)ccc1F`, for which the cytotoxicity call in test [1] and in test [2] was “inactive” in each case. The growth inhibition call in test [3] was “inactive”.
In the case of `O=C(N[C@@H](c1ccc(-c2ccccc2)cc1)c1cnccn1)C1CCN(CCCOc2ccccc2)CC1`, the cytotoxicity call in test [1] is “inactive”. In addition, in test [2], the cytotoxicity call is “active”. Further, in test [3], the growth inhibition call is “inactive”.
With `C[C@@H]1CN([C@@H](C)CO)C(=O)c2cc(NS(=O)(=O)c3cccs3)ccc2O[C@@H](C)CCCCO[C@H]1CN(C)S(=O)(=O)c1ccc(Cl)cc1`, the cytotoxicity call in test [1] was “inactive”. The cytotoxicity call in test [2] was “active”. Besides, in test [3], the growth inhibition call is “inactive”.
`O=C(NCC(F)(F)F)[C@@H]1c2ccccc2C(=O)N(Cc2cc(F)cc(C(F)(F)F)c2)[C@H]1c1ccc(CO)cc1`: the cytotoxicity call in test [1] and in test [2] was “inactive” throughout. For the same compound, the growth inhibition call in test [3] is “inactive”.
Take `Cc1noc(C)c1S(=O)(=O)Nc1ccc2c(c1)C(=O)N([C@@H](C)CO)C[C@H](C)[C@@H](CN(C)CC1CC1)O2`: the cytotoxicity call in test [1] and in test [2] was “inactive” each time. Further, the growth inhibition call in test [3] was “inactive”.
Consider `C[C@H]1CN([C@@H](C)CO)C(=O)CCCn2cc(nn2)CO[C@@H]1CN(C)C(=O)C1CC1`, for which the cytotoxicity call in test [1] and in test [2] was “inactive” each time. Further, the growth inhibition call in test [3] was “inactive”.
Regarding `C[C@H]1CN([C@@H](C)CO)S(=O)(=O)c2ccc(C3=CCCCC3)cc2O[C@H]1CN(C)S(=O)(=O)c1cn(C)cn1`, the cytotoxicity call in test [1] and in test [2] was “inactive” in each case. Moreover, in test [3], the growth inhibition call is “inactive”.
With `COc1ccc(S(=O)(=O)Nc2ccc3c(c2)C(=O)N([C@@H](C)CO)C[C@@H](C)[C@@H](CN(C)C(=O)Nc2ccc(C(F)(F)F)cc2)OCCCC[C@@H](C)O3)cc1`, the cytotoxicity call in test [1] is “inactive”. For the same compound, in test [2], the cytotoxicity call is “active”. Further, the growth inhibition call in test [3] is “inactive”.
On to `CCS(=O)(=O)NCC[C@H]1CC[C@H](NS(=O)(=O)c2cccc(F)c2)[C@H](CO)O1`, for which the cytotoxicity call in test [1] and in test [2] was “inactive” in each case. In addition, in test [3], the growth inhibition call was “inactive”.
For `COC(=O)c1cccc(C(=O)OC)n1`, the cytotoxicity call in test [1] and in test [2] was “inactive” throughout. Moreover, the growth inhibition call in test [3] is “inactive”.

These data come from the antibiotic and cytotoxicity screens of Wong et al. (2023).
